# In the supplement of paper PMC3334620:
# Whole data set: some 33,000 sequences, median “E-score (-0.5 to 0.5)” near -0.011, cut for the highest 2% near 0.28. The list shows a part of the results.
# Target: T1, Gcr1 (UniProt P07261)
# T1 sequence: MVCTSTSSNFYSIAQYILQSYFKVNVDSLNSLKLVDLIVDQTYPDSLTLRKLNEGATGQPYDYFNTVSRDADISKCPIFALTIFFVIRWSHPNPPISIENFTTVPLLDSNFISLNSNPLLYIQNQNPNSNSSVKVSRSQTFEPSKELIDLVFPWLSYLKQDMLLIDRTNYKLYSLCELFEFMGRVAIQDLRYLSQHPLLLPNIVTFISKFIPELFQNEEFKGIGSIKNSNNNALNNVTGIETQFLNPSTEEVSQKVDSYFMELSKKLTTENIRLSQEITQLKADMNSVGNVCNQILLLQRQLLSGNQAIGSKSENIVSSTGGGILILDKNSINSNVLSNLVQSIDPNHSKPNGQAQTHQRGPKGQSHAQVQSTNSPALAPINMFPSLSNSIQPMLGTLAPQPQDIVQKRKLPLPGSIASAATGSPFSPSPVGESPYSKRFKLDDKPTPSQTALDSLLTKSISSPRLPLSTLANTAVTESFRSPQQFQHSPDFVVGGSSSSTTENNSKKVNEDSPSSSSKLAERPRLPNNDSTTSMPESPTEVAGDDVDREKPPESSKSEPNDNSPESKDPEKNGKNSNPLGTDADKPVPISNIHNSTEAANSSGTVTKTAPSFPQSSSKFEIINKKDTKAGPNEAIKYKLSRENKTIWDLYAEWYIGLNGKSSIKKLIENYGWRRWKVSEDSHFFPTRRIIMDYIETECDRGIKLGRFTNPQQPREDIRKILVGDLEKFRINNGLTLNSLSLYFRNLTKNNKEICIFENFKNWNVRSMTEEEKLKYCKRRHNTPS
# Assay: PBM E-score (8-mer binding enrichment) (E-score (-0.5 to 0.5)); higher = stronger / more preferred TF binding; most listed sequences are background and not binding sites
# Settings: protein concentration: 100 nM; construct: GST-full length
# Method in brief: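 Using PURExpress in vitro transcription/translation, GST-tagged yeast transcription factors were made in full-length or DNA-binding-domain form. These were applied at about 100-200 nM to double-stranded universal all-10-mer Agilent arrays, and bound protein was detected with fluorescent anti-GST. Scans were normalised with masliner before the Universal PBM Analysis Suite assigned E-scores to ungapped eight-base words pooled with their reverse complements.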
row,Sequence,PBM E-score
1,CCCACCCC,0.192
2,AGCCTCTA,0.0722
3,CAGAGTGC,-0.056
4,GGCTCGTA,-0.121
5,AACCCTAC,-0.0892
6,ATGGACCC,0.0825
7,ATTATACG,0.262
8,ACGGCCTC,-0.246
9,ACTTGCTG,-0.0458
10,CTCATTAC,-0.00627
11,TCCGCCAA,-0.0715
12,GTTTACAA,0.094
13,GGCATGCA,-0.213
14,GACTGCAC,-0.177
15,ACGACTTA,-0.0262
16,GGTCACAC,-0.238
17,CCGAGTAA,0.0742
18,CTGAAGAC,-0.0415
19,CTACCCTA,-0.168
20,TCCTCTAA,0.282
21,TAGGGTGA,-0.105
22,CCAGACAA,-0.0554
23,TAACCCGA,-0.125
24,TACTACGA,-0.0595
25,ATCGGGAC,0.0526

row,Sequence,PBM E-score
1,CGTCTCCA,0.284
2,ACAAATAC,0.161
3,CAGCACCG,0.137
4,AGTCCAGA,-0.0665
5,AGGAGCTA,-0.115
6,CGGAGATA,-0.0368
7,ATCCCGTA,0.125
8,AAGGGATC,-0.155
9,ACCATGAG,-0.214
10,CTATCGTA,0.111
11,AGATCCTC,-0.144
12,CAATTTTC,0.00662
13,ACACCACG,-0.0678
14,CAATGAAC,-0.05
15,CCCCCTGA,-0.366
16,ACGAGCAA,-0.202
17,CCTTATCC,-0.0592
18,AACATAAT,0.119
19,ATTATGGC,0.0727
20,GTGGTATA,0.0831
21,CAAAATGA,0.0843
22,ATCTGTTA,0.00343
23,CGATCCCA,0.121
24,AAGAAACT,-0.142
25,AGGGGGCA,-0.0999

row,Sequence,PBM E-score
1,ACAACGAA,-0.102
2,ACAATTCC,0.0286
3,CGACCACA,-0.00432
4,AGCAGCAG,-0.0192
5,ACTCGCGA,0.033
6,GACGCGCC,0.231
7,GCCCAGGC,-0.146
8,ACTGCAAT,-0.0156
9,CGCCGAAG,-0.1
10,ACCACTGG,0.0029
11,CGGGATAG,-0.172
12,CAAGCTAC,0.108
13,AGGGCTTG,-0.209
14,CTACGGAG,-0.0903
15,GCCAGACC,-0.206
16,ATGAAGGG,-0.174
17,GACAGTAA,-0.14
18,TGAATAAA,0.191
19,CGTTGGGA,0.153
20,ATCGTTTA,-0.0539
21,AGCTGGAG,-0.0939
22,ATGCGCCC,0.0661
23,CACGTTAG,-0.0687
24,CTACGTCA,0.104
25,ACGAGTCT,-0.192

row,Sequence,PBM E-score
1,CTGGCAGA,0.0263
2,CACCAATC,0.103
3,ACAGAGCC,-0.0515
4,CCGTGTCG,-0.0404
5,ATCACGGA,-0.0946
6,GGCGTTAA,-0.161
7,ACAGCGGT,-0.219
8,GTCAACTA,0.049
9,TATCATCA,0.0211
10,AATACGCG,0.161
11,CCCCTATA,0.269
12,AATGTCGG,0.0294
13,CATCGAAA,-0.0269
14,ACTCGATA,-0.0494
15,CAGGCCAA,-0.0461
16,ATCTCAAC,-0.213
17,CCCTATTA,0.0111
18,ACAGGGTG,0.041
19,AGAGCGCG,-0.178
20,AATGACCC,-0.201
21,GAATCAGC,0.0819
22,CCAAAGCG,-0.0616
23,ATATTGGG,0.159
24,AGTTAACT,-0.0401
25,CATGTCAA,-0.255

row,Sequence,PBM E-score
1,CGAGCCTA,-0.0984
2,AATGGGCG,0.15
3,AAGAGTTA,-0.133
4,GCATATGA,-0.015
5,AAACAGTA,-0.0229
6,GACACAAC,-0.114
7,CCACGGTA,-0.0916
8,ACGCGCTG,0.12
9,TGGGGGAA,-0.124
10,GTCACCAA,0.0813
11,AATGGGGA,0.236
12,CTGCACGA,-0.167
13,AAACGTTT,-0.139
14,ACCGATCC,-0.0861
15,AGCTCGTG,0.0258
16,GCCTCCAC,-0.0325
17,CATACCGC,-0.0616
18,CCTTTAGC,-0.119
19,ACCCGTCC,-0.245
20,GAGGAGAC,-0.167
21,AGTGTTCA,0.0609
22,CTGTGCCC,-0.111
23,CGATACGC,0.0218
24,CCTCGATC,-0.148
25,ATAGGGCC,-0.316

row,Sequence,PBM E-score
1,TCCTAGAA,0.174
2,CCGAGTTC,-0.00269
3,TCCGGGCA,0.107
4,ACGTGCTG,0.0435
5,AAGCGCGC,0.0817
6,GAAACCAA,0.147
7,CCATGAGA,-0.0617
8,GCTATGTA,-0.0481
9,AGGGTTAT,0.0654
10,AGCCTGTC,-0.141
11,CAAAATGC,-0.0148
12,AGTGCACA,-0.206
13,AATATGGC,-0.0457
14,CTAACGCC,-0.227
15,ACCAGGCA,-0.0973
16,AGAGGGCC,-0.16
17,AAATTGGG,0.295
18,ATTCTACA,-0.0176
19,TACTTAGA,0.0754
20,ACATTGGG,0.0408
21,ATCAGTGG,0.168
22,GTGGGATA,0.0848
23,GTTGCGGA,0.0873
24,CAGTAACA,-0.0453
25,CCAAGCCC,-0.093

row,Sequence,PBM E-score
1,ACGGACGA,0.207
2,TTGATCAA,0.0444
3,CCTTACAG,0.0754
4,CCGCAGTC,0.0536
5,AGCTCTCC,-0.23
6,TACAACCA,0.16
7,CTTTTATA,0.266
8,ACGAATCC,0.288
9,AGAGAGCC,-0.234
10,TAACCTGA,-0.2
11,AGCATCTG,0.115
12,ATGTTTTA,0.179
13,GAGTTAGC,-0.159
14,ACCTTTGG,-0.061
15,GTGCGCAA,0.0634
16,AGGGGACT,-0.0785
17,CCTTCATA,-0.144
18,GCCCCGCC,-0.00757
19,ACTAACGA,0.0263
20,CGTCGTGA,-0.0907
21,GTCGTCTA,0.0946
22,AGGCCTCA,-0.317
23,CAAGAAGC,0.24
24,AGTAAACA,-0.0203
25,CGTTTCGC,-0.137

row,Sequence,PBM E-score
1,GCAACTAA,0.0559
2,CGAACGCG,-0.0986
3,TCCCTCGA,-0.131
4,CAGGACTG,0.0079
5,GGAGGGAC,-0.122
6,CTTACTAC,0.00849
7,ATCGCCCC,-0.13
8,CAACGGAG,0.11
9,CTTACAGC,-0.247
10,CCACTCAG,0.138
11,CACCCGGA,0.136
12,CCCCGGAC,-0.1
13,GTACTAAA,0.118
14,CCTCCTAC,-0.163
15,CCGACGTA,-0.0898
16,GTCTCCAA,0.21
17,CGATAGAC,-0.201
18,ATTTTTGG,0.186
19,CACACCCA,0.0013
20,ACACTAAC,-0.0511
21,ACTAGTGC,-0.0321
22,AGCAATCA,-0.0811
23,AGCCCGCC,-0.0705
24,GAACGCTC,-0.17
25,ATCAGAAT,0.196

row,Sequence,PBM E-score
1,CTCTGTAC,-0.113
2,CTACGTTC,-0.066
3,ACGCACCC,0.218
4,CTTCATGA,0.0466
5,ATATGACC,-0.207
6,CAGCATGG,-0.18
7,ATAGGAAT,0.27
8,CAGCGAGC,-0.131
9,AGGAGAGG,-0.194
10,AGGCAGGG,-0.244
11,GAAATACC,0.119
12,GAAGCCCC,0.381
13,GCGTTTAC,0.0722
14,CGCCGTAA,-0.00766
15,CTTTGCTA,-0.168
16,GGAGAAGA,-0.0157
17,TCCCCTCA,0.107
18,AAGTCCCT,-0.154
19,ACACATGG,-0.194
